Where “and” joins values, the source holds several entries; their conditions need not be identical. Equal entries are not always repeated. The name of at least one read-out is uncertain.
How the values were obtained:
[1] = target: T1, mu opioid receptor (CHO-hMOR cell membranes) (Homo sapiens, UniProt P35372); test: Mu Opioid Receptor Functional Assay: [35S]GTPγS Binding in CHO-hMOR Cell Membranes, Versions 1 and 2; type: biochemical; details: version 1, basal binding = 100%
T1 construct: purchased Receptor Biology, Inc. (Baltimore, Md.); host or cells: CHO cells (recombinant expression)
T1 sequence (P35372 whole entry): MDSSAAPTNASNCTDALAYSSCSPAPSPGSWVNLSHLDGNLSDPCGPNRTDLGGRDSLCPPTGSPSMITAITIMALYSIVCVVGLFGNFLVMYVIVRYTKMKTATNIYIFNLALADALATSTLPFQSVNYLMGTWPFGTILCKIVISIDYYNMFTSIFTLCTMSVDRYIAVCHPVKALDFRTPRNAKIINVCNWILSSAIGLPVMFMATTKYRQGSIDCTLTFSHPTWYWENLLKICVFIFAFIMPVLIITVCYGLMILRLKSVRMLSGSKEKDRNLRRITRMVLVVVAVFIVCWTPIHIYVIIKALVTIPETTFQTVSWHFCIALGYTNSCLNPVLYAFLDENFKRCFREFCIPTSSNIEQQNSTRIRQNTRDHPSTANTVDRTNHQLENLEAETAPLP
Description: CHO-hMOR cell membranes were purchased from Receptor Biology, Inc. (Baltimore, Md.). About 10 mg/ml of membrane protein was suspended in 10 mM TRIS-HCl pH 7.2, 2 mM EDTA, 10% sucrose, and the suspension kept on ice. One ml of membranes was added to 15 ml cold binding assay buffer containing 50 mM HEPES, pH 7.6, 5 mM MgCl2, 100 mM NaCl, 1 mM DTT and 1 mM EDTA. The membrane suspension was homogenized with a Polytron and centrifuged at 3,000 rpm for 10 min. The supernatant was then centrifuged at 18,000 rpm for 20 min. The pellet was resuspended in 10 ml assay buffer with a Polytron.
The membranes were preincubated with wheat germ agglutinin coated SPA beads (Amersham) at 25° C. for 45 min in the assay buffer. The SPA bead (5 mg/ml) coupled membranes (10 μg/ml) were then incubated with 0.5 nM [^35S]GTPγS in the assay buffer. […] A range of concentrations of receptor agonists was used to stimulate [^35S]GTPγS binding. Both basal and non-specific binding was tested in the absence of agonist; non-specific binding determination included 10 μM unlabeled GTPγS.
Compounds were tested for function as antagonists by evaluating their potential to inhibit agonist-stimulated GTPγS binding. Radioactivity was quantified on a Packard TopCount. The following parameters were calculated:
[formula] % Inhibition=(% stimulation by 1 μM SNC80−% stimulation by 1 μM SNC80 in presence of test compound)×100/(% Stimulation by 1 μM SNC80−100)
EC50 values were calculated using GraphPad Prism.

[2] = system: male CD-1 mice; test: In Vivo Assay: Upper GI Tract Transit (MUGIT); design: species or system mouse; details: dose 30 (mg), p.o.
Description: Methods: The animals used in these studies were male CD-1 mice, ave. wt. ˜30 g. Mice were housed under 12 h/12 h light/dark cycle, food & water ad lib. On the day of the experiment mice were assigned to experimental groups, including one vehicle-only group (=control). At 30 min before administration of carmine dye, animals were dosed with vehicle or vehicle-plus-compound, mice were returned to their home cages after drug administration. After administration of carmine, the animals were either returned to their home cages (non-stressed) or individually placed in the same metal cages as used in the fecal output or entire GI tract transit to induce a novel environment stress. One hour after administration of carmine, mice were sacrificed by cervical dislocation, the abdomen opened midventrally, the small intestine from pylorus to cecum was removed, the mesentery divided in order to lay the intestine straight & flat—without stretching. The total length of intestine and the length of carmine-dyed intestine were measured in order to determine the percent of the upper GI tract over which transit had occurred as follows: {(Length of carmine-dyed intestine)/(Total length of intestine)}×100=% upper GI transit. The data expressed were group means±SD (or s.e.m.) and data expressed as % of control.

[3] = system: novel environment-stressed mice; test: In Vivo Assay-Stress-Induced Fecal Output (Fecal Output for 1 hr); design: species or system mouse; details: for Fecal Output (# pellets) cpd: novel environment-stressed mice; for Fecal Output cpd % control: relative to acclimated control; for Fecal Output cpd % NES: relative to novel environment stress (NES) vehicle group
Text: This assay evaluates the fecal output in novel environment-stressed mice to that of acclimated controls.
Methods: Adult, male, Crl:CD-1(ICR) mice, weighing ˜30-35 g were used in these studies, with a minimum of 10 mice per dose group. One group of mice was assigned as acclimated, or “non-stressed” controls. These control mice were transported from colony housing, where they were housed 3/cage in polycarbonate cages with access to food and water ad lib. to the procedure room. The mice were removed from their home cages and individually housed in 20 cm wide×20 cm deep×15 cm tall cages, equipped with a wire mesh bottom where they remained for a 16-18 hr period of acclimation to their novel environment. Mice were allowed access to food and water ad lib. during acclimation. The other groups of mice were assigned as non-acclimated, or “stressed” treatment groups. Each mouse in each group was weighed and vehicle, or test compound, was intragastrically administered by oral intubation in 0.5% methylcellulose. Mice were allowed access to water only ad lib. during the test period. After compound administrations, acclimated (control) as well as non-acclimated (stressed) mice were individually housed in a 20 cm wide×20 cm deep×15 cm tall cage, with a wire mesh bottom. An absorbant cardboard is placed beneath the cages. The number of fecal pellets excreted by each mouse was determined at hourly intervals following placement of the mice in the individual cages. Raw Data=# of fecal pellets/mouse/hr. […]

Compound: Cc1cc(O)cc(C)c1C[C@H](N)C(=O)N(Cc1nc(-c2ccccc2)c(C)[nH]1)C(C)C [Cpd 166]
- MOR GTP assay_v1 % of Basal [1]: 1448.00% and 1425.00%

Compound: COc1ccc(CN(C(=O)[C@@H](N)Cc2c(C)cc(C(N)=O)cc2C)[C@@H](C)c2nc(-c3ccccc3)c[nH]2)cc1C(=O)O [Cpd 18]
- upper GI transit (% ctrl) [2]: 53.1 % ctrl

Compound: Cc1cc(O)cc(C)c1C[C@H](N)C(=O)N(Cc1nc(-c2ccccc2)c[nH]1)C(C)C [Cpd 194]
- Fecal Output (# pellets) cpd ([3]; 30 mg/kg oral): 4.2 pellets and 4.9 pellets and 6.2 pellets

Compound: Cc1cc(O)cc(C)c1C[C@H](N)C(=O)N(Cc1ccc(C(=O)O)cc1)[C@@H](C)c1nc(-c2ccccc2)c[nH]1 [Cpd 80]
- Fecal Output (# pellets) cpd ([3]; 30 mg/kg oral): 5.5 pellets and 10.3 pellets
- Fecal Output cpd % control ([3]; 30 mg/kg oral): 152.8% and 264.1%
- Fecal Output cpd % NES ([3]; 30 mg/kg oral): 78.6%

Compound: CCN(C(=O)[C@@H](N)Cc1c(C)cc(O)cc1C)[C@H](c1nc(-c2ccccc2)c[nH]1)C(C)C [Cpd 170]
- MOR GTP assay_v1 % of Basal [1]: 1031.00%

Compound: Cc1ccccc1-c1nc(CN(C(=O)[C@@H](N)Cc2c(C)cc(O)cc2C)C(C)C)[nH]c1C [Cpd 165]
- MOR GTP assay_v1 % of Basal [1]: 1182.00%

Compound: CCNC(=O)c1cc(C)c(C[C@H](N)C(=O)N(C)[C@H](C)c2nc(-c3ccccc3)c[nH]2)c(C)c1 [Cpd 182]
- MOR GTP assay_v1 % of Basal [1]: 1091.00%

Compound: Cc1cc(C(N)=O)cc(C)c1C[C@H](N)C(=O)N(Cc1nc(-c2ccccc2)c[nH]1)C(C)C [Cpd 178]
- MOR GTP assay_v1 % of Basal [1]: 1059.00%

Compound: Cc1cc(O)cc(C)c1C[C@H](N)C(=O)N(C)[C@@H](C)c1nc(-c2ccccc2)c[nH]1 [Cpd 207]
- Fecal Output (# pellets) cpd ([3]; 10 mg/kg oral): 8.3 pellets and 5.0 pellets and 6.6 pellets and 5.3 pellets
- Fecal Output (# pellets) cpd ([3]; 30 mg/kg oral): 3.2 pellets and 6.4 pellets

Compound: Cc1cc(O)cc(C)c1C[C@H](N)C(=O)N(Cc1nc(-c2cc(C(F)(F)F)cc(C(F)(F)F)c2)c(C)[nH]1)C(C)C [Cpd 164]
- MOR GTP assay_v1 % of Basal [1]: 1077.00%

Compound: Cc1cc(O)cc(C)c1C[C@H](N)C(=O)N(Cc1nc(-c2ccc(F)cc2)c(C)[nH]1)C(C)C [Cpd 163]
- MOR GTP assay_v1 % of Basal [1]: 1286.00%

Compound: Cc1cc(O)cc(C)c1C[C@H](N)C(=O)N(C)Cc1nc(-c2ccccc2)c[nH]1 [Cpd 199]
- Fecal Output (# pellets) cpd ([3]; 10 mg/kg oral): 9.1 pellets and 10.8 pellets
- Fecal Output cpd % control ([3]; 10 mg/kg oral): 337.0% and 284.2%
- Fecal Output cpd % NES ([3]; 10 mg/kg oral): 82.4%

Compound: Cc1cc(O)cc(C)c1C[C@H](N)C(=O)N(Cc1nc(-c2ccccc2)c[nH]1)C1CCCCC1 [Cpd 190]
- MOR GTP assay_v1 % of Basal [1]: 109% and 194%

Compound: COc1ccc(CN(C(=O)[C@@H](N)Cc2c(C)cc(C(N)=O)cc2C)[C@@H](C)c2nc(-c3ccccc3)c[nH]2)cc1OC [Cpd 75]
- Fecal Output cpd % NES ([3]; 30 mg/kg oral): 70.3% and 35.5%

Compound: CCNC(=O)c1cc(C)c(C[C@H](N)C(=O)N(C)[C@@H](C)c2nc(-c3ccccc3)c[nH]2)c(C)c1 [Cpd 181]
- MOR GTP assay_v1 % of Basal [1]: 1304.00%

— patent US10213415B2, “Compounds as opioid receptor modulators” (JANSSEN PHARMACEUTICA NV, priority 2004, dated 2019)
